The whole screen tested about 130,000 compounds, of which about 1,900 (1.5%) were called active. The inconclusive results got no clear call from the source; some entries with a clear call stand among them for comparison. Calls follow the shape of the dose curve; as a rule, active = well fitted cell-killing curve with a large enough effect; inconclusive = small, poorly fitted or top-dose-only effect; inactive = no such curve, though single readings can be large or run the other way. Potencies beside an inconclusive call are fits to weak or partial responses and may not hold up.
Experiment: qHTS Screen for Compounds that Selectively Target Cancer Cells with p53 Mutations: Cytotoxicity of p53ts Cells at the Nonpermissive Temperature; also: nearly all actives have a fitted effect of over 55% in size
Conditions: H1299-p53A138V viability at 39C, ATP luminescence, 24 h; activity change, negative = cell killing: at 46.1 µM (top of the series)
% is scaled to controls: 0 for no effect and ±100 for the full control effect; potency is read from the fitted curve at half-maximal effect; tags tell the direction and shape of the fitted curve.

| Structure (SMILES) | Potency | activity change, negative = cell killing |
| --- | --- | --- |
| Cc1ccc(NC(=O)c2oc3ccc(S(=O)(=O)N(C)C4CCCCC4)cc3c2C)cc1Cl | inconclusive: 15.8 µM [cytotoxic, partial curve, poor fit] | – |
| CCN(CCCNC(=O)c1cc2cc3ccc(C)cc3nc2s1)c1ccccc1 | inconclusive: 10 µM [cytotoxic, partial curve] | – |
| CCOC(=O)c1cc(-c2ccccc2)n(CC(=O)N(C)c2ccc(OC)cc2)c1C | inactive | – |
| CCOC(=O)c1cnn(-c2ncnc3sc4c(c23)CCC4)c1N | inactive | – |
| CCCCN(CCCC)CC(O)Cn1cc(/C=C/C(=O)c2ccccc2)c2ccccc21 (stereo not given) | inconclusive: 15.8 µM [cytotoxic, single point] | – |
| O=C(CSc1ncnc2c1cnn2-c1ccccc1)Nc1ccccc1 | inconclusive: 31.6 µM [cytotoxic, single point] | – |
| COc1cccc(-c2nc(CSCC(=O)NCCc3ccc(Cl)cc3)c(C)o2)c1 | inconclusive: 15.8 µM [cytotoxic, partial curve] | – |
| CCN(CC)S(=O)(=O)c1nnc(NC(=O)COc2ccc(Cl)cc2)s1 | active: 15.8 µM | – |
| CC(=O)Nc1cc(NC(C)=O)cc(-c2nc3ccccc3[nH]2)c1 | inactive | – |
| CCOc1cc(CNc2ccc(O)cc2)ccc1OCc1ccc(Cl)cc1 | inconclusive: 12.6 µM [cytotoxic, single point] | – |
| CCN(C(=O)c1c(-c2ccccc2)noc1C)c1ccccc1 | inactive | – |
| COc1ccc(NC(=O)c2ccc(-c3nc(CSc4ccccc4)c(C)o3)cc2)cc1OC | inconclusive: 0.0141 µM [cytotoxic, full curve, poor fit] | – |
| COc1cc(OC)cc(C(=O)Nc2ccc3nc(N4CCCCC4)cc(C)c3c2)c1 | inconclusive: 2.51 µM [cytotoxic, partial curve, poor fit] | – |
| CCc1cccc(NC(=O)Nc2csc3c2CCCC3)c1 | inconclusive: 12.6 µM [cytotoxic, partial curve] | – |
| CCC1CCCCN1CCCNC(=O)c1cc2c(Cl)nc3ccccc3c2s1 (stereo not given) | inconclusive: 15.8 µM [cytotoxic, single point] | – |
| Cc1nn(-c2ccccn2)c(C)c1Oc1ccccc1O | inactive | – |
| Oc1ccc(Nc2nc(N3CCCC3)c3ccccc3n2)cc1 | inconclusive: 25.1 µM [cytotoxic, single point] | – |
| Cc1cc(C)c2sc(N(Cc3cccnc3)C(=O)CCS(=O)(=O)c3ccccc3)nc2c1 | active: 15.8 µM | – |
| CC(C)(C)C1CCc2oc3ccc(NS(=O)(=O)c4cc(Cl)ccc4Cl)cc3c2C1 (stereo not given) | inconclusive: 31.6 µM [cytotoxic, single point] | – |
| N/C(=N\O)c1ccc(NC(=O)c2cccs2)cc1 | inconclusive: 12.6 µM [cytotoxic, single point] | – |
| Cc1ccc(C(=O)Nc2nc3ccc(S(C)(=O)=O)cc3s2)s1 | active: 12.6 µM | – |
| O=C(Nc1ccccc1)N1CCc2ccccc21 | inconclusive: 14.1 µM [cytotoxic, partial curve] | – |
| O=C(Cn1c(=O)n(Cc2nc(-c3ccccc3)no2)c(=O)c2cc3c(cc21)OCO3)Nc1ccc(Cl)cc1 | inactive | – |

| Structure (SMILES) | Potency | activity change, negative = cell killing |
| --- | --- | --- |
| CCOC(=O)c1ccc(N2C(=O)c3n[nH]c(-c4cccs4)c3C2c2cccc(F)c2)cc1 (stereo not given) | active: 6.31 µM | – |
| CCc1ccccc1NC(=O)Cn1ncc2c(C)n(Cc3ccccc3F)c(C)c2c1=O | inconclusive: 25.1 µM [cytotoxic, partial curve] | – |
| O=c1c2ccccc2nnn1CSc1nnc(-c2cccs2)n1Cc1ccccc1 | inconclusive: 31.6 µM [cytotoxic, single point] | – |
| CCc1cc(N2CCOCC2)cc2c1[nH]c1ccccc12 | inactive | – |
| CSc1cccc(NC(=O)CN(c2ccccc2)S(=O)(=O)N(C)C)c1 | inconclusive: 17.8 µM [cytotoxic, single point] | – |
| Cc1cc(N2CCCCC2)nc2ccc(NC(=O)c3cccc(F)c3)cc12 | inconclusive: 1.26 µM [cytotoxic, partial curve] | – |
| O=S(=O)(Nc1cccc(-c2ccc(N3CCCCC3)nn2)c1)c1cccc(F)c1 | inconclusive: 6.31 µM [cytotoxic, partial curve] | – |
| O=C(NCC(c1ccco1)S(=O)(=O)c1ccc(Cl)cc1)c1ccccc1F (stereo not given) | inactive | – |
| Cc1ccc(C(=O)N2CCc3cc(CNC(=O)COc4ccccc4)ccc32)cc1 | inconclusive: 10 µM [cytotoxic, partial curve] | – |
| CCn1c(SCC(=O)Nc2ccc3c(c2)OCO3)nc2c1c(=O)n(C)c(=O)n2C | inactive | – |
| Cc1ccc(NS(=O)(=O)c2ccc3[nH]c4c(c3c2)CCCCCC4)cc1Cl | active: 25.1 µM | – |
| Cc1c(C(=O)NCc2ccccc2)sc2nc3n(c(=O)c12)CCC3 | inconclusive: 2.51 µM [cytotoxic, partial curve, poor fit] | – |
| CCCOC(=O)c1ccc(NC(=O)Cc2csc(C)n2)cc1 | inconclusive: 12.6 µM [cytotoxic, single point] | – |
| COCCCNC(=O)CSc1c2c(nc3ccc(Cl)cc13)CCCC2 | inconclusive: 12.6 µM [cytotoxic, single point] | – |
| O=c1c(-c2ccccc2)nc2cnc(Oc3ccccc3)nc2n1C1CC1 | inactive | – |
| CCN(c1ccc(OC)cc1)S(=O)(=O)c1nnc(NC(=O)c2ccccc2Cl)s1 | – | inconclusive: -32.3% [cytotoxic] |
| CCc1ccccc1NC(=O)CSc1ncc2c(n1)-c1ccccc1N(Cc1ccc(C)cc1)S2(=O)=O | inactive | – |
| CC(=O)c1cc2c(cc1NC(=O)Nc1cccc(Cl)c1)OCCO2 | inactive | – |
| COc1cccc(NC(=O)c2oc3ccccc3c2NC(=O)C(C)(C)C)c1 | inactive | – |
| Cc1nnc(N2CCN(c3ccccc3F)CC2)c2c1nnn2Cc1ccc(F)cc1 | – | inconclusive: -39.2% [cytotoxic] |
| Cc1ccc(S(=O)(=O)N2CCCC(c3nc4c(nnn4Cc4ccc(OC(F)(F)F)cc4)c(=O)[nH]3)C2)cc1 (stereo not given) | – | inconclusive: -30.6% [cytotoxic] |
| CCC(=O)Nc1cc2nn(-c3ccccc3)nc2cc1Cl | inconclusive: 2.51 µM [cytotoxic, full curve] | – |

Reference: PubChem BioAssay AID902 (National Center for Advancing Translational Sciences (NCATS), 2007)
